# Test results taken from paper PMC6919601, “Identification of Plasmodium dipeptidyl aminopeptidase allosteric inhibitors by high throughput screening” (PLoS ONE, 2019).
# Out of some 110,000 compounds screened, about 230 (0.21%) showed an effect of 50% or more. This is one part of the list.
# Molecular target: DPAP1 (Plasmodium falciparum, UniProt Q8IIJ9)
# Assay: primary screen, percent inhibition; read by cleavage of a fluorogenic dipeptide substrate; higher = more effect of the substance
# Set-up: species or system P. falciparum D10 trophozoite lysates; single well
# 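Also: 30 min substrate incubation versus DMSO and 10 µM JCP410 controls.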
# DPAP1, sequence (Q8IIJ9 whole entry, looked up): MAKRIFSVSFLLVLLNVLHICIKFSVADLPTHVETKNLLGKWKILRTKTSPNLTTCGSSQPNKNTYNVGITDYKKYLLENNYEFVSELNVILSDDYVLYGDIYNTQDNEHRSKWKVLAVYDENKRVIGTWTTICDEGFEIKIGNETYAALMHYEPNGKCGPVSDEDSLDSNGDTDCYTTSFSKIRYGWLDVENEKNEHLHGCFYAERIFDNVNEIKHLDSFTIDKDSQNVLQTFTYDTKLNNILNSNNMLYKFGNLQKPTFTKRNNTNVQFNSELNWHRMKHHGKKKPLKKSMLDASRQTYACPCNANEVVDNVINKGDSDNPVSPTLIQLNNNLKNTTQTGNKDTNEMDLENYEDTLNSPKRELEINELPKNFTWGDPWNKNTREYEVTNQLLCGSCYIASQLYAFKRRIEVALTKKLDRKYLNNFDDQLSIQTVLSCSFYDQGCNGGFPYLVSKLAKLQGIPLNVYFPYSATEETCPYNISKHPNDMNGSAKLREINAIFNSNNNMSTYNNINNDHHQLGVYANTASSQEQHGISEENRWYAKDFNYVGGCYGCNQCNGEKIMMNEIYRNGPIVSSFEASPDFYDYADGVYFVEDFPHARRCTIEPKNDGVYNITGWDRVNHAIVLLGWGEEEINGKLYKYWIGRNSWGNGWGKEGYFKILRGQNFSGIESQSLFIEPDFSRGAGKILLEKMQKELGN
row,Compound,% Inhibition @ 10 uM [%]
1,COc1ccc(CNC(=O)Cn2ncn3cccc3c2=O)cc1,-5.15
2,CCC(C)NC(=O)CN(c1cc(C)ccc1OC)S(=O)(=O)c1ccc(C)cc1 (centres unmarked),-0.822
3,CC(=O)Nc1ccc(N2CCn3c2cc(C)c(C#N)c3=O)cc1,-4.8
4,CCCCCO/C(O)=C1/C(C)=Nc2ncnn2C1c1ccccc1OC(F)F (centres unmarked),-1.71
5,CCOC(=O)c1conc1-c1ccc2c(c1)OCO2,3.48
6,COc1ccc(OC)c(-c2cnc(OC(C)(C)C)nc2OC(C)(C)C)c1,1.52
7,COc1ccc(CNC(=O)Cc2ccc(Br)cc2)cc1,-5.45
8,CCCNC(=O)CN(c1cc(Cl)ccc1OC)S(=O)(=O)c1ccccc1,1.87
9,CCn1c(C(=O)N2CCCCC2)cc2sccc21,-6.68
10,CCN(CC)CCN(CC)Cc1cc([N+](=O)[O-])ccc1Cl,-2.95
11,OC(COCCOc1ccc(Br)cc1)CN1CCCCC1 (centres unmarked),4.31
12,CC1CCN(CC(O)COC2CC(C)CCC2C(C)C)CC1 (centres unmarked),-4.94
13,CCN(CC)c1ccc(CN2CC=C(c3ccc(F)cc3)CC2)c(O)c1,-0.0648
14,CCOc1ccc(OCc2cccc(C(=O)OCC3CCCO3)c2)cc1 (centres unmarked),-5
15,CN(C)c1ccc(/C=C2\SC(N3CCN(Cc4ccccc4)CC3)=NC2=O)cc1,-5.11
16,COc1ccc(C2CC(=O)N=C(NC(=S)NC(C)C)N2)cc1 (centres unmarked),-7.01
17,O=C(C[n+]1ccc2ccccc2c1)Nc1ccccc1,-0.305
18,CCOCCCNC(=O)NC12CC3CC(CC(C3)C1)C2,0.231
19,CCNC(=O)c1c(NC(=O)c2cc(=O)c3cc(Cl)ccc3o2)sc2c1CCCC2,1.9
20,CCc1ccc(CNc2ccc(CNc3nc[nH]n3)cc2)cc1,5.08
21,Cc1ccc(-n2nc3c(N4CCC(C(=O)NC5CCCCCC5)CC4)nnc(C)c3c2C)cc1,8.61
22,O=S(=O)(c1ccc2[nH]c3nc(SCc4ccccc4Cl)nnc3c2c1)N1CCCCC1,-7.57
23,COc1ccc(-c2cc(C(=O)Nc3ccccn3)c3ccccc3n2)cc1,-0.116
24,COc1ccc(N2CCN(C3CC(=O)N(CCc4ccc(OC)c(OC)c4)C3=O)CC2)cc1 (centres unmarked),-5.27
25,O=C(c1cccc2ccccc12)n1nnc2ccccc21,6.12

row,Compound,% Inhibition @ 10 uM [%]
1,COc1cccc(-c2nnc(SCC(=O)NCCOc3ccccc3)n2-c2ccccc2)c1,2.8
2,Cc1ccc(CN2CCC(CNS(=O)(=O)c3csc(C(N)=O)c3)C2)cc1 (centres unmarked),1.9
3,Cc1oc(-c2ccc(Cl)cc2)nc1CS(=O)CC(=O)NC(C)C (centres unmarked),0.689
4,Cc1ccc(N2C(=O)CC(NCc3ccccc3F)C2=O)cc1 (centres unmarked),-4.56
5,CCOC(=O)C1=C(c2ccc(Cl)cc2)C(=O)c2ccccc2C1=O,5.29
6,O=C(CCCn1c(=O)c2sccc2n(Cc2cc(=O)n3ccccc3n2)c1=O)NCc1ccco1,-8.56
7,CC1CCCCC1NC(=O)C1CCCCC1C(=O)O (centres unmarked),0.472
8,Brc1csc(CN2CCN(c3ncccn3)CC2)c1,-0.828
9,CN1CCC(NCc2ccccc2F)CC1,-0.0494
10,CC(C)c1ccc(C2c3c(-c4ccccc4O)n[nH]c3C(=O)N2Cc2cccnc2)cc1 (centres unmarked),4.83
11,COc1ccccc1-c1c(C)nn2c(SCC(=O)NCc3cccnc3)cc(C)nc12,-5.55
12,O=C(NCCN1CCc2ccccc2C1)C1CCCN(c2ncnc3c2nc2n3CCCCC2)C1 (centres unmarked),3.5
13,COc1ccc(/C=C2\SC(=O)N(Cc3ccc(F)cc3)C2=O)cc1C,9.42
14,CCOC(=O)N1CCC2(CC1)OC(=O)C(C)=C2C(=O)NCCC1=CCCCC1,-2.13
15,COc1cccc(OCc2cc(C3C(C#N)=C(N)Oc4[nH]nc(C)c43)ccc2OC)c1 (centres unmarked),4.08
16,Cc1ccc(C(=O)Nc2c(C)cccc2C(C)C)o1,-0.0938
17,Cc1ccccc1C(=O)Nc1ccc2nc(SCC(=O)N3CCCC3)sc2c1,1.02
18,Cc1ccc2c(c1)-c1onc(C(=O)N3CCc4ccccc4C3)c1CO2,0.0281
19,NC(=O)c1ccccc1NC(=O)CCCOc1ccc(Cl)cc1Cl,3.6
20,COc1ccc(C(=O)N2CCC(Cc3ccccc3)CC2)cc1,1.83
21,CC(C)C[C@@H](C(=O)NCC#N)c1cccc(-c2ccc(C(=O)N3CCC(N(C)C)C3)cc2)c1 (some centres unmarked),-3.04
22,COc1ccc(OC)c(/C=C2\N=C(c3cccc(C)c3OC)OC2=O)c1,-3.46
23,COc1ccc(NC(=O)CN2C(=O)S/C(=C/c3ccc(O)c(OC)c3)C2=O)cc1,3.75
24,O=C1c2ccccc2C(=O)N1c1nc[nH]n1,2.76
25,c1ccc(C(CCNC2CN3CCC2CC3)c2ccccc2)cc1 (centres unmarked),-0.0908

row,Compound,% Inhibition @ 10 uM [%]
1,CC(C)C[C@H](NC(=O)C1CCCC1)C(=O)NCC#N,-6.46
2,CCCCNC(=O)CS(=O)Cc1nc(-c2ccc(C)cc2)oc1C (centres unmarked),-2.85
3,O=C1CC(c2cccc(F)c2F)c2c(O)nc(SCc3ccccc3)nc2N1 (centres unmarked),5.39
4,CCOCCCNC(=O)C1CCN(C(=O)N(C)C)CC1,0.387
5,COC(=O)C1=C(C)NC(=O)/C1=C/c1ccc(CNS(=O)(=O)c2ccc(Cl)cc2)o1,10.9
6,Cc1ccccc1NC(=O)c1cc2c(=O)n3cccc(C)c3nc2n1C,2.03
7,CNS(=O)(=O)c1cnccc1N1CCN(c2ccc(S(N)(=O)=O)cc2)CC1,-3.33
8,CCOC(=O)c1cc2c(=O)n3ccccc3nc2n(C(C)C)/c1=N\C(=O)c1cccc(OC)c1OC,-5.57
9,O=c1oc2c(Cl)cc(Cl)cc2cc1-c1nc(-c2cccs2)cs1,4.12
10,CCOC(=O)c1c(NC(=O)CC)sc2c1CCC(C(C)(C)C)C2 (centres unmarked),0.343
11,O=[N+]([O-])c1ccccc1CN1CCC(Cc2ccccc2)CC1,1.48
12,COc1ccc2c(c1)CCc1sc(NC(=O)c3ccc(OC)c(Br)c3)nc1-2,2.73
13,C=CCN1CCCC1CNC(=O)c1cc(S(N)(=O)=O)cc(OC)c1OC (centres unmarked),-1.22
14,CC1(C)Cc2nc3sc4c(O)ncnc4c3cc2CS1,-2.99
15,CC1CN(CC(O)COCCC23CC4CC(CC(C4)C2)C3)CC(C)O1 (centres unmarked),6.41
16,O=C(NC1=NC(=O)C(F)(C(F)(F)F)S1)NC1CCCCC1 (centres unmarked),-5.4
17,CCCCN1C(=O)C(NC(=O)c2cccnc2)(C(F)(F)F)C2=C1CC(C)(C)CC2=O (centres unmarked),-1.52
18,COCCCNC(=O)C1CCN(c2nnc(C)c3c(C)n(-c4ccccc4)nc23)CC1,-4.57
19,S=C1NCN(Cc2ccccc2)CN1CCc1ccccc1,-3.74
20,COc1cc(C2NC(=O)NC(C)=C2C(=O)Nc2ccc(Cl)cc2)cc(OC)c1OC (centres unmarked),-0.564
21,CC1CCC2C(=O)N(c3cc(Cl)ccc3O)C(=O)C2C1 (centres unmarked),-18.8
22,O=C(CNc1ncnc2ccccc12)NCCO,-8.69
23,CC(NCc1nc2ccccc2n1C)C12CC3CC(CC(C3)C1)C2 (centres unmarked),2
24,CCCNC(=O)c1ccc(C(=O)NCCC)cc1,3.25
25,Cc1ccccc1OCCCOc1ccc(/C=C2/C(=N)N3C(=NC2=O)SN=C3S(C)(=O)=O)cc1,-5.27

row,Compound,% Inhibition @ 10 uM [%]
1,COc1ccc(C(=O)c2sc3nc4c(c(-c5cccnc5)c3c2N)CCC4)cc1,21.7
2,COc1cccc(C2CC(c3cccc(Br)c3)Nc3nnnn32)c1OC (centres unmarked),1.73
3,CN(C)CCN(Cc1ccccc1)C(=O)C(C(=O)c1ccc(Br)cc1)n1ccccc1=O (centres unmarked),2.31
4,COc1cc([N+](=O)[O-])cc2c1OC1(C=C2)N(C)c2ccccc2C1(C)C (centres unmarked),5.85
5,O=C(NCc1ccccn1)c1ccc2c(Cl)c3c(nc2c1)CCCC3,-4.94
6,CCN(CC)c1ccc2cc(-c3nc4ccccc4n3C)c(=O)oc2c1,-4
7,COCCNC(=O)c1cnn2c(C(F)F)cc(-c3ccccc3)nc12,2.46
8,COc1ccc(/C=C/C=N/n2c(SC)nnc2-c2ccccc2)cc1,2.56
9,CC1CCCC(NC(=O)C2C3C=CC(C3)C2C(=O)O)C1C (centres unmarked),-2.24
10,C=CCOc1ccc(C2C3=C(CC(C)(C)CC3=O)N(C)C3=C2C(=O)CC(C)(C)C3)cc1OC,-10.5
11,c1cc2n(c1)CCNC2C1CCCCC1 (centres unmarked),-0.0953
12,Cc1cc(C)c(OCC(=O)Nc2ccc(F)cc2)c(Br)c1,-1.28
13,O=C(Nc1nnc(/C=C/c2ccccc2)s1)c1ccc(Cl)c(Cl)c1,5.94
14,Cc1onc2c1C(=O)CC(c1ccccc1)C2 (centres unmarked),-2.63
15,O=C1c2cccc([N+](=O)[O-])c2C(=O)N1c1ccc(Cl)c(Cl)c1,42.2
16,Cc1ccn2c(NC(=O)CCc3ccccc3)c(-c3cccs3)nc2c1,3.49
17,COc1cccc(CN(C(=O)c2oc3cc(C)c(Cl)cc3c2C)C2CCS(=O)(=O)C2)c1 (centres unmarked),-7.09
18,O=C(c1ccc2nc(N3CCCCC3)sc2c1)N1CCN(C2CCCCC2)CC1,4.22
19,Cc1ccnc(NC(=O)c2ccccc2Cl)c1,-1.63
20,CN(C(=O)Nc1cccc(C(=O)NC(CSCc2ccccc2)C(=O)NCC#N)c1)[C@H]1CCN(Cc2ccccc2)C1 (some centres unmarked),-0.214
21,COc1cc(OC)cc(C(=O)Nc2nc(-c3nnn(-c4ccc(C(C)C)cc4)c3C)ns2)c1,-5.86
22,O=C(c1cc2nc(-c3cccs3)cc(C(F)(F)Cl)n2n1)N1CCOCC1,-7.81
23,COc1ccc(OC)c(NC(=O)Cc2ccccc2F)c1,-4.66
